Laboratory results published in PubChem BioAssay AID686971 (National Center for Advancing Translational Sciences (NCATS), 2013).
Among all 360,000 compounds or so, about 7,500 (2.1%) were called active. The inconclusive results got no clear call from the source; some entries with a clear call stand among them for comparison. Calls come from the whole dose curve; as a rule, active = well fitted cell-killing curve with a large enough effect; inconclusive = small, poorly fitted or top-dose-only effect, or effect the other way, or another doubt; inactive = no such curve, though single readings can be large or run the other way. Potencies of inconclusive entries are left out as doubtful fits.

Experiment: qHTS for induction of synthetic lethality in tumor cells producing 2HG: qHTS for the HT-1080-IDH1KD cell line;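 for activity, negative = toxicity: 0% = DMSO wells and -100% = cell-free medium wells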
Settings: HT-1080 IDH1 knockdown viability, ATP luminescence, 48 h; activity, negative = toxicity: at 46.1 µM (top of the series) unless noted
Outline: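 Luminescent ATP read-out (CellTiter-Glo, 10 min at room temperature) after 48 h compound exposure at 37 °C gave viability of IDH1-knockdown HT-1080 cells. Activity was normalised to DMSO and cell-free wells, then fitted as concentration-response curves.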
Potency is the fitted concentration of half-maximal effect; tags give direction and shape of the fitted curve.

Compound	Potency	activity, negative = toxicity
N/C(=N\OC(=O)COc1ccc2ccccc2c1)c1ccccn1	inconclusive [cytotoxic, single point]	–
COc1ccccc1Cc1c(C2CCCCC2)nc2ccc(Cl)cn12	inconclusive [cytotoxic, single point]	–
CCOc1cc(/C=N/N=C(/N)c2nonc2N)cc(Br)c1OCc1ccc(Cl)cc1	inconclusive [cytotoxic, single point]	–
C=CCNc1nc2c(c(=O)n(C)c(=O)n2C)n1Cc1ccc(F)cc1	inactive	–
CCOc1ccccc1NC(=O)/C(C#N)=C/c1c(C)nn(-c2ccccc2)c1Cl	inactive	–
CCC(=O)N1CCN(c2cc(N3CCCC3)c(F)cc2[N+](=O)[O-])CC1	–	inconclusive: -9.95% [cytotoxic]
CC1(C)NC(C(=O)O)Cc2c1[nH]c1ccccc21 (stereo not given)	inactive	–
CC(C)CC(=O)NC(c1cccs1)c1ccc2cccnc2c1O (stereo not given)	inconclusive [cytotoxic, full curve]	–
CCN(CC)CCNC(=O)C(=O)NCC1OCCN1S(=O)(=O)c1cccs1 (stereo not given)	inactive	–
CCCNC(=O)c1cc(C2CCCCN2C(=O)CCc2ccccc2)on1 (stereo not given)	inconclusive [rising, partial curve]	–
CN1CCN(c2ccc(NC(=O)c3ccc([N+](=O)[O-])o3)cc2Cl)CC1	active: 11.6 µM	–
Cc1ccsc1C(=O)N1CCCC1(C)C(=O)NCC(C)C (stereo not given)	inactive	–
O=C(CCCCCNc1nc(=S)[nH]c2ccccc12)NCCc1ccccc1	inactive	–
CC1CCCC(C)N1C(=O)c1ccccc1Nc1ccc(SC(F)F)cc1 (stereo not given)	inconclusive [cytotoxic, single point]	–
CN(C(=O)COc1ccccc1C(=O)NCCc1ccccc1)c1ccccc1	inactive	–
C[C@@H]1CN([C@H](C)CO)C(=O)c2cc(NC(=O)Nc3ccc(C(F)(F)F)cc3)ccc2O[C@H]1CN(C)S(=O)(=O)c1cccs1	inconclusive [cytotoxic, single point]	–
Cc1ccc(-n2nnnc2SCC(=O)NCC2(N3CCCCC3)CCCCC2)c(C)c1	inactive	–
CC1CN(C(=O)/C=C/c2ccc([N+](=O)[O-])s2)CC(C)O1 (stereo not given)	inconclusive [cytotoxic, partial curve]	–
O=S(=O)(c1ccc(N2CCN(S(=O)(=O)c3ccccc3)CC2)nc1)N1CCCC1	inactive	–
Cc1c(C(=O)N/N=C/c2ccc(O)c(Br)c2)sc(N)c1C#N	inconclusive [rising, full curve]	–
Cc1cc(C)cc(C(=O)Nc2cccc(NC(=O)c3ccco3)c2)c1	inactive	–
CCN(CC)C(=O)c1ccc2c(=O)n(CCOC)c(=S)[nH]c2c1	inactive	–
COc1ccccc1OCc1ccc(C(=O)Nc2ccncc2)o1	inconclusive [cytotoxic, single point]	–
COc1ccc(NC(=S)NNC(=O)c2ccccc2OC(F)F)cc1	active: 3.55 µM	–
COc1cc(C(=O)NNC(=O)CN2C(=O)NC(C)(c3ccc(C)cc3)C2=O)cc(OC)c1OC (stereo not given)	inactive	–
O=C(NC(=S)NCCO)c1cn(-c2ccccc2)nc1-c1ccccc1	inactive	–
Cc1cccc(NC(=O)Cc2coc3ccc4ccccc4c23)n1	active: 7.08 µM	–

Compound	Potency	activity, negative = toxicity
Cc1ccc(-c2nn(-c3ccccc3)cc2C=O)o1	active: 18.4 µM	–
Cc1ncsc1C(=O)Nc1nc2c(s1)CCCC2	inconclusive [cytotoxic, partial curve]	–
CC(=O)NC(CC(C)C)C(=O)NC(=O)NCc1ccccc1 (stereo not given)	inactive	–
COc1cccc(NC(=O)Nc2cccn(Cc3ccc(C)cc3)c2=O)c1	inconclusive [cytotoxic, single point]	–
CCOc1ccc(-c2nnn(CC(=O)Nc3ccccc3OC)n2)cc1OCC	inconclusive [cytotoxic, single point]	–
Cc1ccc(C(NC(=O)C2CCN(CCCOc3ccccc3)CC2)c2ccccn2)cc1 (stereo not given)	inconclusive [cytotoxic, single point]	–
CC(C)=C1C2C=CC1C(C(=O)Nc1cccc(C)c1)C2C(=O)O (stereo not given)	inconclusive [cytotoxic, single point]	–
CCCCNC(=O)c1ccc2nc(CC)c(N(CC)CCN(C)C)n2c1	inconclusive [rising, partial curve]	–
Cc1cc(C)nc(SCC(=O)Nc2ccc(S(=O)(=O)NC(C)(C)C)cc2)n1	inconclusive [cytotoxic, single point]	–
O=C(CC[C@H]1O[C@@H](n2ccc(=O)[nH]c2=O)[C@H](O)[C@@H]1O)NCCCc1ccccc1	inactive	–
O=C(CC1CCCCC1)NC1CCCC1	–	inconclusive: -15.3% [cytotoxic]
CC1CCC(C(C)C)C(OC(=O)Cn2c(-c3ccccc3)[n+](C)c3ccccc32)C1 (stereo not given)	active: 9.2 µM	–
O=C(Nc1cccc(NC(=S)NC(=O)c2cccs2)c1)c1ccccc1	inconclusive [cytotoxic, single point]	–
O=C(Cn1sc2ccccc2c1=O)NC12CC3CC(CC(C3)C1)C2	inconclusive [cytotoxic, single point]	–
O=C(NC(Cc1c[nH]c2ccccc12)C(=O)O)c1cccs1 (stereo not given)	inactive	–
O=[N+]([O-])c1ccc(CN2CC(N3CCCC3)CS2(=O)=O)cc1 (stereo not given)	inactive	–
c1ccc2c(NC3C4CC5CC(C4)CC3C5)nc(N3CCOCC3)nc2c1 (stereo not given)	active: 18.4 µM	–
CC1=C(C(=O)OC(C)C)C(c2ccccc2)NC(=S)N1C (stereo not given)	inconclusive [cytotoxic, partial curve]	–
COc1cc(/C=C2\SC(=Nc3ccccc3)N(CCc3c[nH]c4ccccc34)C2=O)ccc1OC(C)C(=O)O (stereo not given)	inactive	–
CCOC(=O)C1=C(C)N=C(/N=C/N(C)C)SC1c1ccccc1 (stereo not given)	inconclusive [cytotoxic, partial curve]	–
CCc1nc2ccc(C(=O)N(C)Cc3ccccc3)cn2c1N(C)CCCc1ccccc1	inconclusive [cytotoxic, single point]	–
O=C(O)c1ccc(/C=C(\c2nc3ccccc3[nH]2)c2nc3ccccc3s2)cc1	active: 18.4 µM	–
C/C(=N\NC(=O)c1c([N+](=O)[O-])c(C)nn1C)c1ccc(NC(=O)C2CCCC2)cc1	active: 0.326 µM	–
Cc1cccc(N2CCN(Cc3cn(C)nc3-c3ccccc3F)CC2)n1	active: 1.84 µM	–
CC(C)n1c(SCC(=O)NCc2ccco2)nc2c1c(=O)n(C)c(=O)n2C	inactive	–
CCCCCCCn1c2c(c(=N)c3c1CCC3)CCCC2	active: 7.31 µM	–
O=C(NCc1ccccn1)c1ccc(Cl)cc1Cl	inactive	–

Compound	Potency	activity, negative = toxicity
O=C(O)c1ccc(CN2C(=O)c3cccc4c([N+](=O)[O-])ccc(c34)C2=O)cc1	inconclusive [cytotoxic, single point]	–
Cc1cccc(OCc2nnc(NC(=O)Cc3cccs3)s2)c1	inconclusive [cytotoxic, single point]	–
O=S(=O)(c1ccccc1)N1CCC(O)(CSc2ccc(F)cc2)CC1	active: 18.4 µM	–
Cc1cc(/C=C(\C#N)C(=O)NCc2cccs2)c(C)[nH]1	inconclusive [cytotoxic, single point]	–
Cc1ccc(-c2csc(NC(=O)N3CCOCC3)n2)cc1	inconclusive [cytotoxic, single point]	–
CC(C)(C)c1ccc(OCCCCCCN2CCNCC2)cc1	active: 23.1 µM	–
Cc1ccc(S(=O)(=O)NCc2ccncc2)c(C)c1C	inconclusive [cytotoxic, partial curve]	–
Cc1ccn2c(NC3CCCCC3)c(-c3ccc(C)o3)nc2c1	inactive	–
COC(=O)c1ccc(COC(=O)c2[nH]c(C)c(C(C)=O)c2C)o1	inactive	–
Cc1ccc(NC2=C(N3CCOCC3)C(=O)c3ccccc3C2=O)cc1	inconclusive [cytotoxic, single point]	–
O=C(COc1ccc(Cl)cc1Cl)NC(=S)N1CCCc2ccccc21	inconclusive [cytotoxic, partial curve]	–
O=C(OCc1cccc(F)c1)c1ccc2c(c1)-c1ccccc1C2=O	inactive	–
COc1cccc(NC(=O)C2CCN(S(=O)(=O)c3ccc4c(c3)CC(C)N4C(C)=O)CC2)c1 (stereo not given)	inactive	–
Cc1ccc(C)c(-c2csc(N)c2C(=O)OC(C)C)c1	inconclusive [cytotoxic, single point]	–
CCOc1ccc(NC(=O)CN(C)C(=O)c2cc([N+](=O)[O-])ccc2N2CCOCC2)cc1OCC	inactive	–
C=CCNC(=S)Nc1cccc2[nH]ncc12	inactive	–
O=C(O)CC(CC(=O)O)(C(=O)O)c1ccccc1	inactive	–
CCCn1nc2cc(C(=O)NCCc3cccs3)ccc2c1OCC	inactive	–
CC(O)(c1ccc(F)c(F)c1)c1nc(-c2cccc(F)c2)cs1 (stereo not given)	inconclusive [cytotoxic, single point]	–
Cc1ccc(CONC(=O)c2ccc(C)cc2)cc1	inactive	–
O=[N+]([O-])c1cc(C(F)(F)F)cc([N+](=O)[O-])c1NCCN1CCNCC1	inactive	–
CCCCn1nnnc1C1(C)CCC(=O)N1CCc1ccc(OC)c(OC)c1 (stereo not given)	inactive	–
O=C(COc1ccccc1)Nc1ccc(-c2nnc(-c3ccco3)o2)cc1	active: 11.6 µM	–
CC(=O)c1ccc(N2CCN(C(=O)Nc3ccc(Cl)cc3)CC2)cc1	inactive	–
NC(=O)CSc1nc(N)c2c3c(sc2n1)CCCCC3	inactive	–
C#CCn1c(S(=O)(=O)Cc2ccc(C)cc2)nc(-c2ccccc2)c1-c1ccccc1	inconclusive [cytotoxic, full curve, poor fit]	–
